# The whole screen tested about 420,000 compounds, of which about 50,000 (12%) were called active. This list was built around the results that the source calls inconclusive (neither active nor inactive); the mix of calls is not that of the screen. The call rests on the fitted dose curve; in most records, active means well fitted inhibition curve with a large enough effect; inconclusive means small, poorly fitted or top-dose-only effect; inactive means flat fitted curve, though single readings scatter. No potency is given beside an inconclusive call; the fits are too rough.
# Assay: qHTS for Inhibitors of human tyrosyl-DNA phosphodiesterase 1 (TDP1): qHTS in cells in presence of CPT; further: nearly all actives have a fitted effect of over 55% in size
# Conditions: chicken DT40 Tdp1-/-;hTDP1 cells + 20 nM CPT, ATP luminescence, 48 h; activity change, negative = growth inhibition: at 46.2 µM (top of the series) unless noted
# Procedure, shortened: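 Chicken DT40 Tdp1-/- cells complemented with human TDP1, 400 cells/well, exposed to compounds plus 20 nM camptothecin for at least 48 h at 37 C; viability read as ATP content by CellTiter-Glo luminescence.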
# On the % scale 0 is the no-effect control and ±100 the full control effect; potency means the concentration at half of the fitted maximal effect; tags describe the fitted curve by direction and shape.
SMILES,Potency,"activity change, negative = growth inhibition"
COC(=O)[C@]12CCCCC=C1N(Cc1ccc(Cl)cc1Cl)C(=O)[C@H](CC(=O)N1CCC(c3ccccc3)CC1)C2,"inconclusive [inhibitor, single point]",
Cc1ccccc1-n1nnnc1SCCCC(=O)c1ccc(F)cc1,inactive,
CCc1ccc2c(c1)c(=O)c(C(=O)c1ccccc1)cn2CC(=O)Nc1ccc(C)c(Cl)c1,active: 20.6 µM,
Cc1ccc(-c2nnc(-c3ccc4c(c3)OCO4)o2)cc1,inactive,
COc1ccc(NC(=O)CCN=C2NS(=O)(=O)c3ccccc32)cc1S(=O)(=O)N(C)C,inactive,
COc1ccc(N(C(=O)Cn2nnc(-c3ccccc3F)n2)C(C(=O)NCC2CCCO2)c2ccc(Cl)cc2)cc1 (stereo unspecified),"inconclusive [inhibitor, partial curve, poor fit]",
COc1cccc(C(=O)/C=C/c2ccc(OCC#N)c(OC)c2)c1,active: 20.6 µM,
Cc1ccc2[nH]c(=O)c(CN(CCCN(C)C)C(=S)NCCc3ccccc3)cc2c1,"inconclusive [inhibitor, single point]",
CCCOc1c(Br)cc(C(N)=O)cc1OCC,active: 23.1 µM,
COCCCNC(=S)N1CCN(S(C)(=O)=O)CC1,inactive,
N[C@H](CCCP(=O)(O)O)C(=O)O,inactive,
Cc1ccc(NC(=O)CSc2nn3c(=O)c(C)nnc3s2)cc1Cl,"inconclusive [inhibitor, single point]",
COc1ccc(-c2nnc(SCC(=O)NCCc3ccccc3)nc2-c2ccc(OC)cc2)cc1,"inconclusive [inhibitor, single point]",
Cc1cccc(C)c1OCC(=O)Nc1c(C(=O)c2ccccc2)oc2ccccc12,inactive,
CC(NS(=O)(=O)c1ccccc1)C(=O)Nc1nccs1 (stereo unspecified),,inconclusive: -32.1% [inhibitor]
O=c1[nH]c(O)c(N=Nc2ccc(Cl)c(S(=O)(=O)Nc3ccccc3Cl)c2)c(=O)[nH]1,inactive,
Cc1cccc(-n2nc(C(=O)Nc3ccccc3)n3c(=O)cc(-c4ccccc4)nc23)c1,"inconclusive [inhibitor, single point]",
Cc1ccc(Cn2cccc2/C=C2/C(=N)N3C=CSC3=NC2=O)cc1,"inconclusive [inhibitor, single point]",
CC(C)(C)NC(=O)COC(=O)c1ccc(NC(=O)CC#N)cc1,active: 1.46 µM,
CCOC(=O)c1ccc[n+]([O-])c1,inactive,
Cc1ccc(NC(=O)CSc2nc3nccnc3c(=O)n2CCc2c[nH]c3ccccc23)c(C)c1,active: 11.6 µM,
COc1ccc(-c2c(C)nn3c(-c4ccccc4)cc(-c4ccccc4)nc23)cc1,"inconclusive [inhibitor, single point]",
Cc1ccc(C(=O)CSc2nnc(-c3ccccc3)n2-c2ccccc2)o1,active: 11.2 µM,

SMILES,Potency,"activity change, negative = growth inhibition"
Cn1c(CCN2CCN(c3ccccn3)CC2)nc2cc(NS(=O)(=O)c3ccc(Cl)cc3)ccc21,"inconclusive [inhibitor, single point]",
COc1ccc(Cl)cc1NC(=O)CN(C)CC(=O)NCc1ccc(F)cc1,"inconclusive [inhibitor, single point]",
Cc1cc(C)cc(NC(=O)CCc2nc3sc4c(c3c(=O)[nH]2)CCCC4)c1,active: 4.61 µM,
O=C(Nc1ccc(OC(F)(F)F)cc1)C(NS(=O)(=O)c1cccc2nsnc12)c1ccccc1 (stereo unspecified),active: 16.4 µM,
CN(C)c1ccc(/C=c2\[nH]c(=O)/c(=C\c3ccc(N(C)C)cc3)[nH]c2=O)cc1,"inconclusive [inhibitor, single point]",
C/C(=N\NC(=O)c1nnn(-c2nonc2N)c1CN(C)c1ccccc1)c1ccccc1O,active: 8.2 µM,
O=C(O)CCCn1cc(NC(=O)COc2ccccc2F)cn1,inactive,
CCCCOC(=O)c1ccc(NC(=O)c2cc(=O)c3ccccc3o2)cc1,"inconclusive [inhibitor, single point]",
CCc1nc(N[C@H](C(=O)O)C(C)C)c2oc3ccccc3c2n1,inactive,
CCN(c1ccccc1)S(=O)(=O)c1ccc(N2CCN(c3ccc(OC)cc3)CC2)nc1,active: 11.6 µM,
Cc1cccc(N(C(=O)Cn2nnc(-c3ccccc3F)n2)C(C(=O)NC(C)(C)C)c2ccncc2)c1 (stereo unspecified),"inconclusive [inhibitor, single point]",
CCn1c(=O)c(=O)[nH]c2cc(C(=O)N(C)Cc3ccc(OC)c(F)c3)ccc21,inactive,
CCOc1ccc(/C=N/NC(=O)c2ccc(O)cc2)cc1CN1CC2CC(C1)c1cccc(=O)n1C2 (stereo unspecified),"inconclusive [inhibitor, single point]",
CSC(C1CCCC1)n1nnc2ccccc21 (stereo unspecified),inactive,
Oc1ccccc1C=NN=Cc1c(O)ccc2ccccc12,"inconclusive [inhibitor, partial curve, poor fit]",
N#Cc1c(NC(=O)CSc2nc3ccccc3s2)sc2c1CCCC2,"inconclusive [inhibitor, single point]",
COc1ccc(-c2cc([C@H]3[C@@H]4C=CCC[C@@]4(C)C(=O)N3Cc3ccccc3)ccc2F)cc1,"inconclusive [inhibitor, single point]",
CC1CN(C(=O)c2ccccc2)c2ccccc2NC1=O (stereo unspecified),inactive,
O=C(CSc1ncc2c(n1)-c1cc(Cl)ccc1N(Cc1ccccc1)S2(=O)=O)NCc1ccccc1,"inconclusive [inhibitor, single point]",
O=C(CCCO)N/N=C/c1cc(Br)ccc1O,"inconclusive [inhibitor, single point]",
O=C(c1ccc(S(=O)(=O)N2CCCCC2)cc1)N(c1ccccn1)C1CCCCC1,active: 23.1 µM,
O=[N+]([O-])c1ccc(S(=O)(=O)CC(CN2CCOCC2)N2CCOCC2)cc1 (stereo unspecified),"inconclusive [inhibitor, single point]",
COc1ccccc1NS(=O)(=O)c1cc(NC(=O)Nc2ccc(Cl)cc2Cl)ccc1N1CCCCC1,"inconclusive [inhibitor, single point]",

# — PubChem BioAssay AID686979 (National Center for Advancing Translational Sciences (NCATS), 2013)
